Assay [1] concerns HSkMC (human skeletal muscle cells). Put plainly: cytotoxicity call (relative viability < 0.9). Conditions: 10 µM.
Assay [2] has as its system HepG2. Kind of assay: cytotoxicity call (relative viability < 0.9). Conditions: 10 µM.
Assay [3] concerns S. aureus RN4220. Kind of assay: growth inhibition call (relative growth <= 0.2). To be noted: 50 µM.

The results in this text go back to the antibiotic and cytotoxicity screens of Wong et al. (2023).

Structures are written as SMILES. Some of the results follow.

Consider `N[C@H]1C[C@H]1c1ccccc1`, for which the cytotoxicity call in assay [1] and in assay [2] was “inactive” in each case. Besides, the growth inhibition call in assay [3] is “inactive”.

With `COC1C(O)C(C)OC(OC2CCC3(C)C4CCC5(C)C(C6=CC(=O)OC6)CCC5(O)C4CCC3(O)C2)C1O` (configuration not stated), the cytotoxicity call in assay [1] and in assay [2] was “inactive” throughout. For the same compound, in assay [3], the growth inhibition call was “inactive”.

Consider `CNc1ccccc1C(=O)O`, for which the cytotoxicity call in assay [1] and in assay [2] was “inactive” each time. For the same compound, in assay [3], the growth inhibition call is “inactive”.

Consider `CCC1(O)C(=O)OCc2c1cc1n(c2=O)Cc2cc3ccccc3nc2-1` (configuration not stated), for which the cytotoxicity call in assay [1] is “inactive”. The cytotoxicity call in assay [2] is “active”. The growth inhibition call in assay [3] is “inactive”.

On to `C[C@@H]1C(=O)O[C@H]2[C@H](O)[C@@]34[C@@H]5OC(=O)[C@@]3(O[C@@H]3OC(=O)[C@H](O)[C@@]34[C@H](C(C)(C)C)[C@H]5O)[C@@]12O`, for which the cytotoxicity call in assay [1] and in assay [2] was “inactive” in each case. In addition, in assay [3], the growth inhibition call is “inactive”.

Regarding `O=C(Cc1ccccc1)c1ccccc1`, the cytotoxicity call in assay [1] and in assay [2] was “inactive” in each case. Further, the growth inhibition call in assay [3] was “inactive”.

Consider `C=C(C)C1C2OC(=O)C1C1(O)CC3OC34C(=O)OC2C14C` (configuration not stated), for which the cytotoxicity call in assay [1] and in assay [2] was “inactive” in each case. Moreover, in assay [3], the growth inhibition call was “inactive”.

As to `CN1[C@@H]2CC[C@H]1CNC(=O)C2`, the cytotoxicity call in assay [1] and in assay [2] was “inactive” in each case. For the same compound, in assay [3], the growth inhibition call is “inactive”.

Take `C=CCC1(C(C)CCC)C(=O)N=C([S-])NC1=O.[Na+]` (configuration not stated): the cytotoxicity call in assay [1] and in assay [2] was “inactive” throughout. Moreover, in assay [3], the growth inhibition call was “inactive”.

Turning to `COc1cc(C2c3cc4c(cc3C(O)C3COC(=O)C23)OCO4)cc(OC)c1OC` (configuration not stated), the cytotoxicity call in assay [1] is “inactive”. The cytotoxicity call in assay [2] was “active”. Besides, the growth inhibition call in assay [3] was “inactive”.

As for `Cn1ncnc2c(=O)n(C)c(=O)nc1-2`, the cytotoxicity call in assay [1] and in assay [2] was “active” each time. Moreover, the growth inhibition call in assay [3] is “inactive”.

`C[C@@H]1CN([C@H](C)CO)C(=O)CCCn2cc(nn2)CO[C@H]1CN(C)C(=O)Oc1cccc2ccccc12`: the cytotoxicity call in assay [1] and in assay [2] was “inactive” throughout. In addition, the growth inhibition call in assay [3] was “inactive”.

For the compound `NC[C@@H](CC(=O)O)c1ccccc1`, the cytotoxicity call in assay [1] and in assay [2] was “inactive” each time. Also, the growth inhibition call in assay [3] was “inactive”.

As for `Cl.NCCc1c[nH]c2ccc(O)cc12`, the cytotoxicity call in assay [1] and in assay [2] was “inactive” each time. Besides, the growth inhibition call in assay [3] is “inactive”.
